Test results: the supplement of paper PMC11417369
± gives the standard deviation of the averaged measurements. Some of the results follow.

Tested on: PfAP2-G AP2 domain (GST-tagged)
Assay: gcPBM binding intensity (ln(normalized median fluorescence intensity)); higher = stronger DNA binding
In short: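 Probes on an Agilent 4 × 180k array were primer-extended, double-stranded and 36 bp long, taken from intergenic genomic regions, with negative controls added. GST-tagged P. falciparum DNA-binding domains from E. coli, about 25 μg on average, were applied to the array for 1 h in 1× PBS containing 1% milk, 0.2 mg/ml BSA, 0.5% salmon testes DNA and 0.03% Triton X-100. Binding intensity, obtained after Alexa488 anti-GST antibody detection and a 488 nm scan, is the highest Masliner-normalised natural-log median intensity across replicate spots of either probe orientation.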

Row | Sequence | gcPBM binding intensity (ln)
1 | TATTGCCCTGGACACACACACATATATATATATATA [CACACA_site5389] | 10.8 ± 0.57
2 | CACAAAAATTTATACACACACATATATAATATATAT [CACACA_site152] | 10.1 ± 0.18
3 | AAGGATATGAAAAGTAGTACAAAATTTAGAACACCC [XGTACX_site4758] | 11.5 ± 0.67
4 | ATTATATTCTCCTTCACACACAAAAATATTTCATCA [CACACA_site5326] | 10.1 ± 0.11
5 | TTACGATTAAATATAACACACAACATATTTTTAATA [CACACA_site2967] | 9.855 ± 0.049
6 | ATCTTTTACGAATACACACACATAAAGAAAAAAAAA [CACACA_site1331] | 10.2 ± 0.23
7 | AAGTATTACAACCACACACACACCTATATATCATAG [CACACA_site7878] | 10.3 ± 0.25
8 | TTGATATATAATAATACACACTTACATAATTAATTA [CACACA_site4320] | 10.1 ± 0.16
9 | ATTTCAAATTAATTTACACACTTCATACTAAAAGAC [CACACA_site3176] | 10.1 ± 0.2
10 | TAAATACAGACATATACACACATATATATATATATA [CACACA_site4382] | 10.1 ± 0.2
11 | TTTCAATTTATCAGTGTGCACAAAAATAAAATAAAA | 10.7 ± 0.6
12 | ATGTATATGTTTTGTTGTACAAGTATTTTATATCTT [XGTACX_site3588] | 11.3 ± 0.78
13 | TGAATTTAGATATATACACACAAAAGTAAATACAAT [CACACA_site5548] | 10.1
14 | TAAAGATGTATTTATTCACACATCTCATATAATGAA [CACACA_site5229] | 9.785 ± 0.035
15 | TTATGTATCCTTATAAGAAAAAAAAAAAAATTCTCT [CACACA_negctrl_site1183] | 9.85 ± 0.15
16 | AATAAAAATATAGGCACACATATTAAAATGAACTTA [CACACA_site830] | 10.2 ± 0.18
17 | GTATAAAAATTATATACACACAACAGAATTACATAT [CACACA_site133] | 10.17 ± 0.057
18 | GTTTATTGATTTATTTGTACTTATATATATATTTCA [XGTACX_site5098] | 11.3 ± 0.67
19 | AATATATACATACATACATGCATACATATATATAAC [TGCATGCA_site371] | 10.1 ± 0.16
20 | TTTAAATATATTCAATCACACACATTCGTTTTTTTT [CACACA_site7962] | 9.77 ± 0.24
21 | GAATATTAAACAAACACACACACATATATATATATA [CACACA_site3382] | 10.1 ± 0.26
22 | AGTAGTCTGGAGAAAAGTACACAGTATCTGGTAACC [XGTACX_site2035] | 11.6 ± 1
23 | TATAAATAGATATATACACACATTTTTAATGATAAA [CACACA_site7299] | 9.85 ± 0.13

Row | Sequence | gcPBM binding intensity (ln)
24 | AAAAAAAAAAGACACACACACAATAGTATATAAATC [CACACA_site6579] | 10.11 ± 0.057
25 | AAAAAAAAAAAAAATACACACATATATATATATATA [CACACA_site85] | 10.1 ± 0.42
26 | CTTTTTCCTTTATATTGTACATAATTAAAGATAATA [XGTACX_site7014] | 11.1 ± 0.7
27 | TAAATTTATATATAGGTGCGCAATTTGATAATAGTT [GTGCAC_site9783] | 10.3 ± 0.25
28 | TTTTTATTTTTTCAAGTGCATATTTTTGGCTTCTTA | 9.78 ± 0.11
29 | TATATATATATATTACGTTTTAAATATACTAATCTT [CACACA_negctrl_site32] | 9.87 ± 0.33
30 | AATGTCATCATATTCATATATATTTATTTCTTTTTG [GTGCAC_negctrl_site500] | 9.69 ± 0.23
31 | TTTTTTTATAAATTCACACAAAATATAATATTAAAA [CACACA_site4766] | 9.82 ± 0.11
32 | CTATATATTTTTCATTGTACACAAATTAAAGAAAAA [XGTACX_site8385] | 11.5 ± 1.1
33 | ATATAATCCTTTCAAACACACAAAATATAATTAATA [CACACA_site1829] | 9.945 ± 0.007
34 | ATGATGGAATATTCTACACACAATTAATAAACAAAC [CACACA_site1045] | 10.1 ± 0.13
35 | TAAAAAAAAAAGTATACACACTTCTTAATGTCAACA [CACACA_site4818] | 10.1 ± 0.13
36 | TGTCCAATTTATTGTGCACACCTCAAAAGTGGGTAA [CACACA_site3826] | 10.6 ± 0.37
37 | GGTTATAACCCACATGCACACGTAAATAAATATTAT [CACACA_site5992] | 10.3 ± 0.23
38 | ATAAATAATAAGGTTACAACAAACACACAAAGGAAT [XGTACX_negctrl_site611] | 10.22 ± 0.099
39 | TAATAAATAAAAACATGTACATATATACATATATGT [XGTACX_site485] | 11.4 ± 0.81
40 | TACCTATATACATACACACACATATAACCAATGTAG [CACACA_site7096] | 10.3 ± 0.18
41 | AGAAGATTAAAAATTGCACACAAAAATATATTTTCT [CACACA_site8359] | 10.03 ± 0.028
42 | TTTCTATAATATATATGTACATATATAATATGTCGT [XGTACX_site3676] | 11.2 ± 0.6
43 | AGATAAAATAAATACACACACATAAATACGTACAAA [CACACA_site4739] | 11.7 ± 0.74
44 | TGATAATAAGCATACACACACACACTAAAAAAAAAA [CACACA_site6478] | 10.3 ± 0.43
45 | ATGATTATACAAAATATACACACGTGGACACAAATA [CACACA_site8304] | 11.4 ± 0.66
